Data reported in the supplement of paper PMC8728848.
The list shows a part of the results.

How the values were obtained:
Assay in all cases: glycan array binding signal (z-score within array); higher = stronger binding
Conditions in all cases: glycan notation: IUPAC condensed, linker removed
Gal(a1-3)GalNAc = biological target: Gal(a1-3)GalNAc
Procedure, shortened: (§1)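 From the Consortium for Functional Glycomics database, 3228 arrays were curated, keeping only those whose protein sequence was available. Binding is given as a within-array Z-score averaged across arrays sharing a protein sequence and across linkers. Negative Z-scores can be read as non-binding.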

[1] = biological target: Gal(a1-3)[Gal(a1-4)]Gal(b1-4)GlcNAc
Procedure, shortened: as §1

[2] = biological target: Gal(a1-4)Gal(b1-3)GlcNAc(b1-2)Man(a1-3)[Gal(a1-4)Gal(b1-3)GlcNAc(b1-2)Man(a1-6)]Man(b1-4)GlcNAc(b1-4)GlcNAc
Procedure, shortened: as §1

Gal(a1-4)Gal(b1-4)Glc = biological target: Gal(a1-4)Gal(b1-4)Glc
Procedure, shortened: as §1

Gal(a1-4)Gal(b1-4)GlcNAc = biological target: Gal(a1-4)Gal(b1-4)GlcNAc
Procedure, shortened: as §1

[3] = biological target: Gal(a1-4)Gal(b1-4)GlcNAc(b1-2)Man(a1-3)[Gal(a1-4)Gal(b1-4)GlcNAc(b1-2)Man(a1-6)]Man(b1-4)GlcNAc(b1-4)GlcNAc
Procedure, shortened: as §1

[4] = biological target: Gal(a1-4)Gal(b1-4)GlcNAc(b1-3)Gal(b1-4)Glc
Procedure, shortened: as §1

Gal(a1-4)GlcNAc = biological target: Gal(a1-4)GlcNAc
Procedure, shortened: as §1

Gal(a1-6)Glc = biological target: Gal(a1-6)Glc
Procedure, shortened: as §1

Gal(b1-2)Gal = biological target: Gal(b1-2)Gal
Procedure, shortened: as §1

Gal(b1-3)Gal = biological target: Gal(b1-3)Gal
Procedure, shortened: as §1

Gal(b1-3)Gal(b1-4)GlcNAc = biological target: Gal(b1-3)Gal(b1-4)GlcNAc
Procedure, shortened: as §1

[5] = biological target: Gal(b1-3)Gal(b1-4)GlcNAc(b1-2)Man(a1-3)[Gal(b1-3)Gal(b1-4)GlcNAc(b1-2)Man(a1-6)]Man(b1-4)GlcNAc(b1-4)GlcNAc
Procedure, shortened: as §1

Gal(b1-3)GalNAc = biological target: Gal(b1-3)GalNAc
Procedure, shortened: as §1

[6] = biological target: Gal(b1-3)GalNAc(a1-3)[Fuc(a1-2)]Gal(b1-4)Glc
Procedure, shortened: as §1

[7] = biological target: Gal(b1-3)GalNAc(a1-3)[Fuc(a1-2)]Gal(b1-4)GlcNAc
Procedure, shortened: as §1

[8] = biological target: Gal(b1-3)GalNAc(b1-3)Gal(a1-4)Gal(b1-4)Glc
Procedure, shortened: as §1

[9] = biological target: Gal(b1-3)GalNAc(b1-4)Gal(b1-4)Glc
Procedure, shortened: as §1

[10] = biological target: Gal(b1-3)GalNAc(b1-4)[Neu5Ac(a2-3)]Gal(b1-4)Glc
Procedure, shortened: as §1

Gal(b1-3)GlcNAc = biological target: Gal(b1-3)GlcNAc
Procedure, shortened: as §1

[11] = biological target: Gal(b1-3)GlcNAc(a1-6)Gal(b1-4)GlcNAc
Procedure, shortened: as §1

[12] = biological target: Gal(b1-3)GlcNAc(b1-2)Man(a1-3)[Gal(b1-3)GlcNAc(b1-2)Man(a1-6)]Man(b1-4)GlcNAc(b1-4)GlcNAc
Procedure, shortened: as §1

[13] = biological target: Gal(b1-3)GlcNAc(b1-2)Man(a1-3)[Gal(b1-3)GlcNAc(b1-2)Man(a1-6)]Man(b1-4)GlcNAc(b1-4)[Fuc(a1-6)]GlcNAc
Procedure, shortened: as §1

[14] = biological target: Gal(b1-3)GlcNAc(b1-3)Gal(b1-3)GlcNAc
Procedure, shortened: as §1

[15] = biological target: Gal(b1-3)GlcNAc(b1-3)Gal(b1-4)Glc
Procedure, shortened: as §1

[16] = biological target: Gal(b1-3)GlcNAc(b1-3)Gal(b1-4)GlcNAc
Procedure, shortened: as §1

[17] = biological target: Gal(b1-3)GlcNAc(b1-3)Gal(b1-4)GlcNAc(b1-6)[Gal(b1-3)GlcNAc(b1-3)]Gal(b1-4)Glc
Procedure, shortened: as §1

[18] = biological target: Gal(b1-3)GlcNAc(b1-3)Gal(b1-4)[Fuc(a1-3)]GlcNAc(b1-6)[Gal(b1-3)GlcNAc(b1-3)]Gal(b1-4)Glc
Procedure, shortened: as §1

[19] = biological target: Gal(b1-3)GlcNAc(b1-3)GalNAc
Procedure, shortened: as §1

[20] = biological target: Gal(b1-3)GlcNAc(b1-6)Gal(b1-4)GlcNAc
Procedure, shortened: as §1

[21] = biological target: Gal(b1-3)[Fuc(a1-4)]GlcNAc
Procedure, shortened: as §1

[22] = biological target: Gal(b1-3)[Fuc(a1-4)]GlcNAc(b1-2)Man(a1-3)[Gal(b1-3)[Fuc(a1-4)]GlcNAc(b1-2)Man(a1-6)]Man(b1-4)GlcNAc(b1-4)GlcNAc
Procedure, shortened: as §1

[23] = biological target: Gal(b1-3)[Fuc(a1-4)]GlcNAc(b1-2)Man(a1-3)[Gal(b1-3)[Fuc(a1-4)]GlcNAc(b1-2)Man(a1-6)]Man(b1-4)GlcNAc(b1-4)[Fuc(a1-6)]GlcNAc
Procedure, shortened: as §1

[24] = biological target: Gal(b1-3)[Fuc(a1-4)]GlcNAc(b1-3)Gal(b1-3)[Fuc(a1-4)]GlcNAc
Procedure, shortened: as §1

[25] = biological target: Gal(b1-3)[Fuc(a1-4)]GlcNAc(b1-3)Gal(b1-4)GlcNAc
Procedure, shortened: as §1

[26] = biological target: Gal(b1-3)[Fuc(a1-4)]GlcNAc(b1-3)Gal(b1-4)[Fuc(a1-3)]GlcNAc
Procedure, shortened: as §1

[27] = biological target: Gal(b1-3)[GlcNAc(b1-6)]GalNAc
Procedure, shortened: as §1

[28] = biological target: Gal(b1-3)[Neu5Ac(a2-6)]GalNAc
Procedure, shortened: as §1

[29] = biological target: Gal(b1-3)[Neu5Ac(a2-6)]GlcNAc(b1-6)Gal(b1-4)Glc
Procedure, shortened: as §1

[30] = biological target: Gal(b1-3)[Neu5Ac(b2-6)]GalNAc
Procedure, shortened: as §1

[31] = biological target: Gal(b1-4)GalNAc(a1-3)[Fuc(a1-2)]Gal(b1-4)GlcNAc
Procedure, shortened: as §1

[32] = biological target: Gal(b1-4)GalNAc(b1-3)[Fuc(a1-2)]Gal(b1-4)GlcNAc
Procedure, shortened: as §1

Gal(b1-4)Glc = biological target: Gal(b1-4)Glc
Procedure, shortened: as §1

Gal(b1-4)Glc6S = biological target: Gal(b1-4)Glc6S
Procedure, shortened: as §1

Gal(b1-4)GlcNAc = biological target: Gal(b1-4)GlcNAc
Procedure, shortened: as §1

B1: Ecp6 (Cladosporium fulvum), B3VBK9 (protein)
chain: MQSMILFAAALMGAAVNGFVLPRTDDPDCETKATDCGSTSNIKYTVVKGDTLTSIAKKFKSGICNIVSVNKLANPNLIELGATLIIPENCSNPDNKSCVSTPAEPTETCVPGLPGSYTIVSGDTLTNISQDFNITLDSLIAANTQIENPDAIDVGQIITVPVCPSSQCEAVGTYNIVAGDLFVDLAATYHTTIGQIKALNNNVNPSKLKVGQQIILPQDCKNVTTAVA
Gal(a1-3)GalNAc
  glycan array binding signal (z-score): -0.083
[1]
  glycan array binding signal (z-score): -0.078
[2]
  glycan array binding signal (z-score): -0.099
Gal(a1-4)Gal(b1-4)Glc
  glycan array binding signal (z-score): -0.1
Gal(a1-4)Gal(b1-4)GlcNAc
  glycan array binding signal (z-score): -0.102
[3]
  glycan array binding signal (z-score): -0.075
[4]
  glycan array binding signal (z-score): -0.101
Gal(a1-4)GlcNAc
  glycan array binding signal (z-score): -0.102
Gal(a1-6)Glc
  glycan array binding signal (z-score): -0.065
Gal(b1-2)Gal
  glycan array binding signal (z-score): -0.087
Gal(b1-3)Gal
  glycan array binding signal (z-score): -0.082
Gal(b1-3)Gal(b1-4)GlcNAc
  glycan array binding signal (z-score): -0.104
[5]
  glycan array binding signal (z-score): -0.096
Gal(b1-3)GalNAc
  glycan array binding signal (z-score): -0.081
[6]
  glycan array binding signal (z-score): -0.1
[7]
  glycan array binding signal (z-score): -0.086
[8]
  glycan array binding signal (z-score): -0.064
[9]
  glycan array binding signal (z-score): -0.093
[10]
  glycan array binding signal (z-score): -0.062
Gal(b1-3)GlcNAc
  glycan array binding signal (z-score): -0.088
[11]
  glycan array binding signal (z-score): -0.095
[12]
  glycan array binding signal (z-score): -0.096
[13]
  glycan array binding signal (z-score): -0.094
[14]
  glycan array binding signal (z-score): -0.083
[15]
  glycan array binding signal (z-score): -0.076
[16]
  glycan array binding signal (z-score): -0.08
[17]
  glycan array binding signal (z-score): -0.107
[18]
  glycan array binding signal (z-score): -0.122
[19]
  glycan array binding signal (z-score): -0.089
[20]
  glycan array binding signal (z-score): -0.085
[21]
  glycan array binding signal (z-score): -0.083
[22]
  glycan array binding signal (z-score): -0.039
[23]
  glycan array binding signal (z-score): -0.097
[24]
  glycan array binding signal (z-score): -0.086
[25]
  glycan array binding signal (z-score): -0.086
[26]
  glycan array binding signal (z-score): -0.093
[27]
  glycan array binding signal (z-score): -0.107
[28]
  glycan array binding signal (z-score): -0.091
[29]
  glycan array binding signal (z-score): -0.102
[30]
  glycan array binding signal (z-score): -0.094
[31]
  glycan array binding signal (z-score): -0.081
[32]
  glycan array binding signal (z-score): -0.078
Gal(b1-4)Glc
  glycan array binding signal (z-score): -0.083
Gal(b1-4)Glc6S
  glycan array binding signal (z-score): -0.079
Gal(b1-4)GlcNAc
  glycan array binding signal (z-score): -0.079
